Experimental findings from publication PMC5892938 are described below.

This is one part of the list. At the low end of the ranking, values are background and their order means little.

This assay has as its target GST-SBP-SLBP (stem-loop binding protein) (UniProt Q14493). As to the kind of experiment: targeted RNA Bind-n-Seq.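 Further: DESeq read counts versus GST-SBP nonspecific binding control pulldown.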 Particulars: RBNS binding buffer: 25 mM Tris pH 7.5, 150 mM KCl, 3 mM MgCl2, 0.1% Tween, 0.5 mg/mL BSA, 1 mM DTT; 27 nM protein, 750 pM RNA pool; temperature not stated; high values mean tight binding.
In the case of “GGUCACGUCUCAAUCAACUCUUUCCCAGGAGUUUACUCCUGCAUACUCAACAGCUCGCAGUCAAG”, the binding signal (log2 fold change) is -0.159.

“GGUCACGUCUCAAUCAACUCAUUCUCAGGAGUUUUCUCCUGUUUAUUCAACAGCUCGCAGUCAAG”: the binding signal (log2 fold change) amounted to 0.0954.

As for “GGUCACGUCUCAAUCAACUCUUCCCCCAGGGAAAGCCCUGGCAUAUUCAACAGCUCGCAGUCAAG”, the binding signal (log2 fold change) was -0.0277. On to “GGUCACGUCUCAAUCAACUCAUCCUCAGGAGUUUGCUCCUGCAUUUUCAACAGCUCGCAGUCAAG”, for which the binding signal (log2 fold change) amounted to 0.174. Take “GGUCACGUCUCAAUCAACUCUUCGUCCAGGGAAAUCCCUGGUAUAUUCAACAGCUCGCAGUCAAG”: the binding signal (log2 fold change) stood at 0.13. Turning to “GGUCACGUCUCAAUCAACUCCUUCGAGGGGGGGAAAACCCCUUUACCCUCUUCUUCAACAGCUCGCAGUCAAG”, the binding signal (log2 fold change) is -0.183. The result for “GGUCACGUCUCAAUCAACUCAUCCUCCAGGGAAAUCCCUGGCAUUCUCAACAGCUCGCAGUCAAG” reads -0.0223; that for “GGUCACGUCUCAAUCAACUCUUUCCCCAGGGAAAGCCCUGGUAUUCUCAACAGCUCGCAGUCAAG”, 0.013.

With “GGUCACGUCUCAAUCAACUCAUUUUCCAGGGAAAGCCCUGGCAUUUUCAACAGCUCGCAGUCAAG”, the binding signal (log2 fold change) was -0.0522. As for “GGUCACGUCUCAAUCAACUCUAUCCCCAGGGAAAUCCCUGGUAAUUUCAACAGCUCGCAGUCAAG”, the binding signal (log2 fold change) came out at 0.00975.

For “GGUCACGUCUCAAUCAACUCAUCGCCCAGGGAAACCCCUGGUAAAUUCAACAGCUCGCAGUCAAG”, the binding signal (log2 fold change) is -0.429. The result for “GGUCACGUCUCAAUCAACUCAUAAGAGGGGGGGAAAACCCCUUUGCCCUCAAAAUCAACAGCUCGCAGUCAAG” reads 0.153; that for “GGUCACGUCUCAAUCAACUCAUCCCCAGGAGUUUCCUCCUGUUUAGUCAACAGCUCGCAGUCAAG”, 0.0392; that for “GGUCACGUCUCAAUCAACUCAACUUCAGGAGUUUCCUCCUGUUAUUUCAACAGCUCGCAGUCAAG”, 0.0416. Then “GGUCACGUCUCAAUCAACUCAUCCUCCAGGGAAAUCCCUGGCAAUUUCAACAGCUCGCAGUCAAG”, with 0.131. Then “GGUCACGUCUCAAUCAACUCUUCCUCAGGAGUUUUCUCCUGUAAAUUCAACAGCUCGCAGUCAAG”, with -0.029.

Take “GGUCACGUCUCAAUCAACUCUUUCCCCAGGGAAAGCCCUGGUUAUUUCAACAGCUCGCAGUCAAG”: the binding signal (log2 fold change) is 0.0687. As for “GGUCACGUCUCAAUCAACUCUUUCCCCAGGGAAAUCCCUGGCAAUGUCAACAGCUCGCAGUCAAG”, the binding signal (log2 fold change) is -0.158. Then “GGUCACGUCUCAAUCAACUCAUCUCCCAGGGAAACCCCUGGCAUUCUCAACAGCUCGCAGUCAAG”, with 0.175; and “GGUCACGUCUCAAUCAACUCAUCGCCAGGAGUUUACUCCUGUAAUUUCAACAGCUCGCAGUCAAG”, with -0.0688; and “GGUCACGUCUCAAUCAACUCAGUCUCCAGGGAAACCCCUGGUUUUUUCAACAGCUCGCAGUCAAG”, with 0.14.

As to “GGUCACGUCUCAAUCAACUCUUCUCCCAGGGAAAACCCUGGCUUACUCAACAGCUCGCAGUCAAG”, the binding signal (log2 fold change) was -0.123.

On to “GGUCACGUCUCAAUCAACUCUUUUCCCAGGGAAAACCCUGGCAAUCUCAACAGCUCGCAGUCAAG”, for which the binding signal (log2 fold change) is -0.151. The result for “GGUCACGUCUCAAUCAACUCUUUUUCAGGAGUUUUCUCCUGUAUAUUCAACAGCUCGCAGUCAAG” reads -0.189.

In the case of “GGUCACGUCUCAAUCAACUCAGUCUCCAGGGAAAACCCUGGCAUUCUCAACAGCUCGCAGUCAAG”, the binding signal (log2 fold change) amounted to 0.138. Then “GGUCACGUCUCAAUCAACUCAACUCCAGGAGUUUUCUCCUGUAAUUUCAACAGCUCGCAGUCAAG”, with 0.198; and “GGUCACGUCUCAAUCAACUCAACUUCCAGGGAAAGCCCUGGCUUAUUCAACAGCUCGCAGUCAAG”, with 0.00177. Then “GGUCACGUCUCAAUCAACUCAAAAGAGGGGGGGAAAACCCCUUUACCCUCGUUAUCAACAGCUCGCAGUCAAG”, with -0.37; and “GGUCACGUCUCAAUCAACUCUUUCUCAGGAGUUUACUCCUGCUUAUUCAACAGCUCGCAGUCAAG”, with 0.0167; and “GGUCACGUCUCAAUCAACUCUUACGAGGGGGGGAAAACCCCUUUACCCUCUUCAUCAACAGCUCGCAGUCAAG”, with 0.218.

Turning to “GGUCACGUCUCAAUCAACUCAGUUCCAGGAGUUUCCUCCUGCAAAUUCAACAGCUCGCAGUCAAG”, the binding signal (log2 fold change) was -0.119. Then “GGUCACGUCUCAAUCAACUCAUUCUCAGGAGUUUUCUCCUGUAUAUUCAACAGCUCGCAGUCAAG”, with 0.0283; and “GGUCACGUCUCAAUCAACUCAUUUCCAGGAGUUUACUCCUGCAUAUUCAACAGCUCGCAGUCAAG”, with -0.0303; and “GGUCACGUCUCAAUCAACUCAUUUCCAGGAGUUUUCUCCUGUUUACUCAACAGCUCGCAGUCAAG”, with 0.072. For “GGUCACGUCUCAAUCAACUCUUCGUCCAGGGAAAGCCCUGGUUAUUUCAACAGCUCGCAGUCAAG”, the binding signal (log2 fold change) was 0.0753. The result for “GGUCACGUCUCAAUCAACUCAAUUUCAGGAGUUUUCUCCUGCUUACUCAACAGCUCGCAGUCAAG” reads -0.0241; that for “GGUCACGUCUCAAUCAACUCAGUCUCCAGGGAAAACCCUGGCAAUUUCAACAGCUCGCAGUCAAG”, -0.0828. Then “GGUCACGUCUCAAUCAACUCAGUCCCAGGAGUUUCCUCCUGUUUUUUCAACAGCUCGCAGUCAAG”, with -0.147.
